{"source": "the supplement of paper PMC8728848", "binders": {"B1": {"name": "Epa12 (Candida glabrata) (protein)", "chain": "MGSSHHHHHHSSGLVPRGSHMLEPDNSLQIFDSFLSNPSKYPLGCSPKITNPKKGLSMELYSYPYRKKGSHPCWDPAYLDPNFPRVGYKKNKLIARVDGVSGDINFNFHPKRQCTPIADYLPPNFNYNEPITTTNFTMLLYGYFKPKVTGLHTFDISADDLLFMNFGAGNAFDCCRRDSTADTFGNYVAWAIWGRRIVRNKLTVRLDKGIYYPLRLFFNNRDYYGQMRLTFKTEHGSERITDFSDYFFSVDDTSEGCPGLITYESECADVKSSTVLETDYITIQAEKE"}}, "assay_in_all_cases": "glycan array binding signal (z-score within array); higher = stronger binding", "settings_in_all_cases": "glycan notation: IUPAC condensed, linker removed", "key": {"[1]": {"target": "Neu5Gc(a2-8)Neu5Gc(a2-3)Gal(b1-4)GlcNAc(b1-3)Gal(b1-4)GlcNAc", "in_short": "(§1)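 Glycan array data were curated from 3228 arrays in the Consortium for Functional Glycomics database and kept only where the protein sequence was available. Glycan names were converted to IUPAC-condensed notation, and columns mapping to the same glycan were averaged. The binding signal is a within-array Z-score, averaged across arrays of the same protein sequence at different concentrations or buffers and across linkers. Negative Z-scores can be read as non-binding.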"}, "[2]": {"target": "Neu5Gc(a2-8)Neu5Gc(a2-6)Gal(b1-4)GlcNAc", "in_short": "as §1"}, "[3]": {"target": "Neu5Gc(b2-6)Gal(b1-4)GlcNAc", "in_short": "as §1"}}, "note": "The other results are listed elsewhere or left out."}
{"binder": "B1", "values": [{"measurement": "glycan array binding signal (z-score)", "setting": "[1]", "result": -0.326}, {"measurement": "glycan array binding signal (z-score)", "setting": "[2]", "result": -0.366}, {"measurement": "glycan array binding signal (z-score)", "setting": "[3]", "result": -0.224}]}
